For this assay, the target named is Nonstructural protein 3 (Zika virus) (UniProt A0A024AXB9).
[1] abbreviates: PRVABC59, Concentration 50.0 uM, Number of replicates 1.0.
Where [2] appears, read: PRVABC59, Concentration 15.0 uM, Number of replicates 1.0.

Our source for the inhibition values is ChEMBL document CHEMBL5606458, “ASAP - ZIKV NS2B-NS3 protease fluorescence single point” (2024).

Each structure is given as a SMILES string. About 160 (5.9%) of roughly 2,700 compounds showed an effect of 50% or more. The list shows a part of the results.

UniProt A0A024AXB9, sequence (A0A024AXB9 as listed by the source): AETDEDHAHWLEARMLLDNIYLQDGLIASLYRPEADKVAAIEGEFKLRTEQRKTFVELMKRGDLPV

By inhibition is commonly meant the relative decrease from the control value, in per cent. As for `Cc1cccc(CN2CCC(c3c[nH]c4cccnc34)CC2)c1`, the inhibition (PRVABC59, Concentration 49.5 uM, Number of replicates 2.0, Standard deviation 2.42457357779759 %) was found to be 2.44%; the inhibition (PRVABC59, Concentration 99.01 uM, Number of replicates 2.0, Standard deviation 3.1506488853312535 %) amounted to 7.92%; the inhibition (PRVABC59, Concentration 198.0 uM, Number of replicates 2.0, Standard deviation 1.8696443151869018 %) was found to be 12.8%. For `Cc1cc(CO)c2cccc(Cc3ccccc3NC(=O)[C@@H](N)c3ccsc3)c2n1`, the inhibition by setting is: (PRVABC59, Concentration 49.95 uM, Number of replicates 2.0, Standard deviation 2.2445410806003347 %) 0.734%; (PRVABC59, Concentration 99.9 uM, Number of replicates 2.0, Standard deviation 1.969699247677824 %) 6.11%. For the compound `N#Cc1cccnc1N1CCN(C(=O)C2CCN(c3ccc(C=O)cc3)CC2)CC1`, the inhibition under setting [1] was -3.4%. Regarding `CCCCCC(=O)N[C@H](C(=O)NCc1cccc(CN)c1)C(C)C`, the inhibition by setting is: (PRVABC59, Concentration 49.5 uM, Number of replicates 2.0, Standard deviation 1.6604110062016018 %) -3.37%; (PRVABC59, Concentration 99.01 uM, Number of replicates 2.0, Standard deviation 0.686994979426725 %) -1.61%; (PRVABC59, Concentration 198.0 uM, Number of replicates 2.0, Standard deviation 1.5234270050454344 %) 1.78%. Consider `COc1ccc(-c2cc(NC(=O)C3CCN(c4ccc(C=O)cc4)CC3)[nH]n2)cc1`, for which, under setting [1], the inhibition is -8.36%. Take `O=C(c1nc2ccccc2[nH]1)N1CCCC[C@H]1c1nc2ccccc2[nH]1`: the inhibition is, setting by setting: (PRVABC59, Concentration 49.5 uM, Number of replicates 2.0, Standard deviation 6.1042129746591085 %) -4.73%; (PRVABC59, Concentration 99.01 uM, Number of replicates 2.0, Standard deviation 3.7363658728701186 %) -3.45%; (PRVABC59, Concentration 198.0 uM, Number of replicates 2.0, Standard deviation 3.8832690926764766 %) -4.07%. As for `COCC[C@@H](NC(=O)OCc1ccccc1)C(=O)Nc1cccc(CN)c1`, the inhibition is -1.25% (PRVABC59, Concentration 49.5 uM, Number of replicates 2.0, Standard deviation 1.3012513050396814 %); 0.031% (PRVABC59, Concentration 99.01 uM, Number of replicates 2.0, Standard deviation 0.4150273719118387 %); 3.21% (PRVABC59, Concentration 198.0 uM, Number of replicates 2.0, Standard deviation 0.38382224566943357 %).

As for `Cc1cc(NC(=O)C2CCN(c3ccc(C=O)cc3)CC2)cnc1Br`, the inhibition under setting [1] stood at 14.9%. Consider `O=Cc1ccc(N2CCC(C(=O)NCc3ccc(SC(F)(F)F)cc3)CC2)cc1`, for which the inhibition (PRVABC59, Concentration 10.0 uM, Number of replicates 1.0) was 2.67%.

With `O=Cc1ccc(N2CCC(C(=O)N3CCN(c4cccnc4)CC3)CC2)cc1`, under setting [1], the inhibition is 20.5%. On to `CN(Cc1cccc([N+](=O)[O-])c1)C(=O)c1cc(Cl)ccc1NS(=O)(=O)c1ccc(Oc2ccccc2Cl)cc1`, for which the inhibition under setting [2] was 22.6%. Consider `O=C(NCC1(CO)CC1)[C@]1(c2ccc(F)cc2)CCCNC1`, for which the inhibition runs as follows: (PRVABC59, Concentration 49.5 uM, Number of replicates 2.0, Standard deviation 0.9681443832568309 %) -0.032%; (PRVABC59, Concentration 99.01 uM, Number of replicates 2.0, Standard deviation 1.2629623893806565 %) -0.015%; (PRVABC59, Concentration 198.0 uM, Number of replicates 2.0, Standard deviation 1.1811741328420227 %) -0.495%. For the compound `CSCC[C@H](NC(=O)OC(C)(C)C)C(=O)N1CCC[C@H]1C(=O)N1CCNCC1`, the inhibition is, setting by setting: (PRVABC59, Concentration 49.5 uM, Number of replicates 2.0, Standard deviation 3.1362795073873433 %) -7.44%; (PRVABC59, Concentration 99.01 uM, Number of replicates 2.0, Standard deviation 3.0029926277825516 %) -6.05%; (PRVABC59, Concentration 198.0 uM, Number of replicates 2.0, Standard deviation 2.5930346155893305 %) -4.02%. As to `Cc1c(Br)cnc(NC(=O)C2CCN(c3ccc(C=O)cc3)CC2)c1[N+](=O)[O-]`, the inhibition under setting [1] came to 22.8%. For the compound `CS(=O)(=O)c1ccc(O)c(NC(=O)C2CCN(c3ccc(C=O)cc3)CC2)c1`, the inhibition under setting [1] is 26.6%. Turning to `O=C(c1cc(Cl)ccc1NS(=O)(=O)c1ccc(Oc2ccccc2Cl)cc1)N1CCC(c2noc3ccc(F)cc23)CC1`, the inhibition under setting [2] is 8.36%. `CN(CC[C@H](O)c1cccs1)C(=O)C1CCN(c2ccc(C=O)cc2)CC1`: the inhibition under setting [1] is 27.6%.

For the compound `O=C(c1cc(Cl)ccc1NS(=O)(=O)c1ccc(Oc2ccccc2Cl)cc1)N(Cc1ccc([N+](=O)[O-])cc1)C1CC1`, the inhibition under setting [2] was 15.4%. Regarding `O=Cc1ccc(N2CCC(C(=O)Nc3cc(F)c(Br)c(F)c3)CC2)cc1`, the inhibition under setting [1] was 24.5%. On to `Cc1ccsc1CN(CC(C)C)C(=O)c1cc(Cl)ccc1NS(=O)(=O)c1ccc(Oc2ccccc2Cl)cc1`, for which the inhibition under setting [2] is 24.9%. Take `O=Cc1ccc(N2CCC(C(=O)NC3CCN(C(=O)C4CC4)CC3)CC2)cc1`: under setting [1], the inhibition amounted to 3.45%. In the case of `O=C(c1cc(Cl)ccc1NS(=O)(=O)c1ccc(Oc2ccccc2Cl)cc1)N1CCN(c2cccc(O)c2)CC1`, under setting [2], the inhibition was found to be 26.1%.

For `Cc1cc(CO)c2cccc(NC(=O)C3CCC(N)CC3)c2n1` (centres undefined), the inhibition runs as follows: (PRVABC59, Concentration 49.95 uM, Number of replicates 2.0, Standard deviation 0.4998117214705663 %) 93.2%; (PRVABC59, Concentration 99.9 uM, Number of replicates 2.0, Standard deviation 0.37327676699721984 %) 95.4%. For the compound `C[C@@H](C(=O)NCc1ccc(N2CCN(C)CC2)cc1)c1ccccc1`, the inhibition was -2.24% (PRVABC59, Concentration 49.5 uM, Number of replicates 2.0, Standard deviation 7.6370315408848 %); -3.26% (PRVABC59, Concentration 99.01 uM, Number of replicates 2.0, Standard deviation 8.327090090436085 %); -2.93% (PRVABC59, Concentration 198.0 uM, Number of replicates 2.0, Standard deviation 7.026223733637278 %). For the compound `O=Cc1ccc(N2CCC(C(=O)N3CCN(C(=O)[C@@H]4CCCO4)CC3)CC2)cc1`, the inhibition under setting [1] is 21.4%. As to `O=Cc1ccc(N2CCC(C(=O)N3CCC(N4CCCC4=O)CC3)CC2)cc1`, the inhibition under setting [1] came to 23.2%. In the case of `O=C(Nc1ccc(-n2ccnc2)cc1)c1cc(Cl)ccc1NS(=O)(=O)c1ccc(Oc2ccccc2Cl)cc1`, the inhibition under setting [2] was determined as 63.6%. Turning to `O=Cc1ccc(N2CCC(C(=O)N3CC[C@@]4(O)CCCC[C@H]4C3)CC2)cc1`, under setting [1], the inhibition amounted to 25.9%.
